In all, about 46,000 compounds went through this assay and about 60 (0.1%) were called active. Roughly 3% stayed inconclusive and do not appear here. The call rests on the fitted dose curve; in most records, active means well fitted inhibition curve with a large enough effect; inconclusive means small, poorly fitted or top-dose-only effect; inactive means no such curve, though single readings can be large or run the other way. Some of the results follow.
Experiment: Primary qHTS assay for Inhibitors of ovarian cancer metastasis using an organotypic tumor microenvironment (TME) model. Further: nearly all actives have a fitted effect of over 65% in size.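 On activity change, negative = inhibition: plate controls were DMSO wells for no effect and tomatine positive control wells for full effect.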
Settings: SKOV3ip1-GFP adhesion/invasion on 3D omental model, fluorescence; series mostly up to 45.8 µM; activity change, negative = inhibition: at the top concentration
Method in brief: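 qHTS, 4-pt dose (0.36-46 umol/L); SKOV3ip1-GFP, 1,200 cells/well, no FBS; primary omental fibroblast/mesothelial co-culture 48 h pre-grown; 2 h RT + 16 h 37 C; PBS wash, 4% PFA; GFP count 488/509 nm.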

Activity change, negative = inhibition, inactive:
COc1cc(C2Nc3ccccc3-c3nnc(SCc4ccc(Cl)cc4)nc3O2)ccc1OCC(=O)O (stereo unspecified) 6.14%
CCCCN(C)C(=O)c1ccc2c(c1)N(Cc1cccc(Cl)c1)C(=O)c1ccccc1S2=O (stereo unspecified) -8.26%
CCOC(=O)CSc1nc2cc3c(cc2c(=O)n1CCCCCC(=O)NCc1ccc2c(c1)OCO2)OCO3 9.61%
COC(=O)C1=C(C)NC(C)=C(C(=O)OCCCN2CCC(c3ccccc3)(c3ccccc3)CC2)C1c1cccc([N+](=O)[O-])c1 (stereo unspecified) -10.6%
COc1ccc(-c2noc(-c3cc(C(C)C)[nH]n3)n2)cc1 10.6%
O=C(NCc1ccc(Cl)cc1)C1(c2cccs2)CCOCC1 2.93%
Cc1cc2oc(C(=O)N(Cc3ccc(N(C)C)cc3)CC3CCCO3)c(C)c2cc1C (stereo unspecified) -8.66%
CCC1=Nc2cc(C(=O)NCCCOC(C)C)ccc2Sc2ccc(C)cc21 -2.9%
COC(=O)c1ccccc1NC(=O)Cn1ncc2c(C)n(Cc3ccc(F)cc3)c(C)c2c1=O -2.22%
O=C(Nc1ccc(NC(=O)c2cccs2)cc1)c1ccc(Cl)cc1 -5.97%
Cc1ccc(CNC(=O)C2CCCN(c3nc4c(C)cc(C)cc4s3)C2)cc1 (stereo unspecified) 3.61%
CC(=O)c1cccc(Nc2cc(C)nc3nc(-c4ccccc4C)nn23)c1 52.5%
COC(=O)c1ccccc1NC(=O)CCn1nc(C)c2c(C)n(-c3ccccc3)nc2c1=O 3.33%
O=C(COc1ccccc1)NCCc1csc(-c2ccc(F)cc2)n1 -6.45%
Cc1ccccc1Cc1c(C)nc2c(-c3ccccc3)c(C)[nH]n2c1=O 30.9%
CCCCOc1ccc(Cn2c(=O)oc3ccccc32)cc1 -3.23%
O=C(Cn1cc(S(=O)(=O)Cc2cccc(Cl)c2)c2ccccc21)Nc1ccc(F)c(Cl)c1 -3.46%
COc1ccc(CNC(=O)CCc2nc3cccnc3n2Cc2ccc(OC)cc2)cc1 -2.66%
COc1ccccc1CNS(=O)(=O)c1cc(-c2cc(C)no2)ccc1C 19%

outcome, inactive:
Cc1cc(C)cc(NC(=O)N2CCN(C)c3ncccc32)c1
O=C(CCCCn1c(=O)c2ccccc2n(Cc2ccccc2F)c1=O)NCc1ccc2c(c1)OCO2
Cn1c(=O)cc(OCC(=O)N2CCN(c3ccccc3F)CC2)c2ccccc21
CCOc1ccc(CNC(=O)CN2C(=O)CSc3ccc(S(=O)(=O)N4CCOCC4)cc32)cc1OC
CN(C(=O)Cn1c(=O)n(Cc2ccc(C(=O)NCc3ccc4c(c3)OCO4)cc2)c(=O)c2ccccc21)c1ccccc1
Cc1nn(CCCC(=O)NCCc2ccc(Cl)cc2)c(=O)c2nn(-c3ccccc3)c(C)c12
O=C(NCc1cccc(Cl)c1)c1oc(=O)c2ccccc2c1-c1ccccc1

— PubChem BioAssay AID1963576 (National Center for Advancing Translational Sciences (NCATS), 2024)
